Data from the RNAGym collection of RNA variant scans (doi:10.1073/pnas.2313332121).
Variants at the floor of the assay are shown more often than the library holds them.

B1: TPR 5TU (parent)
chain: GGAUCUUCUCGAUCUAACAAAAAAGACAAAUCUGCCACAAAGCUUGAGAGCAUCUUCGGAUGCAGAGGCGGCAGCCUUCGGUGGCGCGAUAGCGCCAACGUUCUCAACUAUGACACGCAAAACGCGUGCUCCGUUGAAUGGAGUUUAUCAUG

Variants of: B1
Assay: polymerase ribozyme fitness, log enrichment relative to wild type (log ratio); higher = more active; in vitro selection for triplet polymerase activity
Outline: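 Each subunit of a heterodimeric triplet polymerase ribozyme was represented by a PCR-built, transcribed mutant library that underwent triplicate single-round in vitro selection with frozen incubation at −7 °C. Extended constructs were recovered by gel excision, streptavidin-bead capture and RT-PCR, and Illumina sequencing of input and output libraries kept genotypes with ≥10 input reads and ≥1 read per output. Fitness is the logarithm of genotype enrichment relative to wild-type enrichment, from inverse-variance-weighted replicate averages, with a logarithm base of 2.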

Polymerase ribozyme fitness (log ratio), ≤ -4.2:
A37C U44A C51A C54U U78A G92U C105U A106U A110U U111G G140A
A37C U45G G65C G140A U148G
A37G A39G U61C A107U
A37G A52C U102C G141A
A37G A91G U134G
A37G A98U G128U
A37G C43A C51U C103G C125A
A37G C75G U130C C132U
A37G C75U C76A G141A
A37G G42A C99U G133U U135G U144A
A37G G59C G88U U90C A107U G136U
A37G G70A G92C G140A
A37G G74U C79A C85G
A37G G83U U102G C116U G117C U135C U145G G152U
A37G U45C G46C A60C C118G C125A G143C
A37G U53G G74C U148G
A37G U56A C85U C105A
A37U A64C C85A
A37U C38U C93A U139G
A37U C63A C69A C76G
A37U C72G C85G
A37U C79G C108U G141C
A37U G42C C57A G94C C105G G141U
A37U G42C G86C A113C U135A
A37U G50C U53A G59U C63U G86A G117C C129U
A37U G59A C69G A73U C76A G84A C96U A138G U146C
A37U G83A A113C
A37U U53G G88U A106U
C38A A39C A41C G65C C75U U109G
C38A A47C U77C C85G C129A G141U U146G
C38A A47U C76G
C38A A47U G67U
C38A A49C C57G C95A C123U
C38A A49U C93G U104A A122G
C38A A98G A120C U139A U148A
C38A C54G G84U C87U G92C G126U
C38A C79G U82G C95A A106U G143C
C38A C85A C131G U134A C149A U151G
C38A C87U C129U G141U
C38A C93A C105G
C38A C95A C105G U127C
C38A G42U U55A C93U U111C G152C
C38A G48A G50C C57A G81A U151G
C38A G59A G92A U134G
C38A G86A C108A
C38G A49C C54U G67C C75U C87A C99G U146C
C38G C75G C93A
C38G G58C A64C C79A U146G
C38G G84U G88A U90C A97C U135G A150U
C38G G152C
C38G U53A A91U C95G A110C A121G U135C A137U
C38G U53C G67U A97U A137U
C38G U82C C95G G140C A142G
C38U A41C A52G U53C G67C C96G C131G G152C
C38U A41G U56A G84U U90A C108A
C38U A49C G59A G65U
C38U A52C C79A
C38U A66G C93A
C38U A91C A98U G100A
C38U C43G C85A A110U A113G
C38U C54U C57U G84U U139G U146G G152U
C38U C69U C75G
C38U C76U U82C G86U A98C A121C A142C
C38U C85U G88U U102C
C38U C87A
C38U C93A A113G C114A A150G
C38U C95U C105A G128C
C38U G42A U82C C108G U111A
C38U G50A C93G C125A U144G
C38U G50C C95A G112A
C38U G58A C93G U102G G143A
C38U G58C U90G U109C U144A U146A
C38U G59A A73C G83U G140U
C38U G59A G67C G92U C99G U101G C116U G143U
C38U G68C A89U C108G C118A C125U G136C A150U
C38U G80U C96G A142C U148G
C38U U44A A52C C96G
C38U U55A C79U G86A G88C C105A U109G A121C
C38U U55A C87A C125G
C38U U56A G65A U78A C87U C95U
C38U U56G G83C C129G
C38U U61A A91C C93U A122G A147U
C38U U77C G92A
C38U U90C U102G C116G
A39C A47G G50C A60C G67U G71A G84A C99U A119C
A39C A49C C54A C57U G58C G88A A147C
A39C A49U C76A A121G
A39C A66C A73C C85G G86C C95A
A39C A73C G94A C99G C116U A121C
A39C C51U A66G U82G G84U U101C
A39C C54G A97G C114G
A39C C72A U90G A91G U135A
A39C C75A C93U
A39C C75G C76U C85U G92U C93U C99U G126A
A39C C76G C93U A142C C149U
A39C C93A U101G
A39C C99G A137G U144A
A39C C99U U111G
A39C G50A A98G A107C G140A
A39C G50A G70C G88C U145G
A39C G58C C131G
A39C G59C G94C A106U A121G U151G
A39C G59U C93A A107G G126U
A39C G59U G68A G86U U130A
A39C G62C G86U G100U G136C U151C
A39C G70A G80A C99G A119U
A39C G71A U101G G133C
A39C G71U U78G U82A C105G A113U
A39C G80A C129A G136U
A39C G83C C105G A110G G133A
A39C G88C G92C A113C
A39C U56A A66G G67A A106G A110G A122U U127A
A39C U77A G84A C95U A120U
A39C U101A A121U
A39G A40C C79U A97U G100U A138C U144G
A39G A40G U45G U53A G92A
A39G A40U A41C C76A G94C
A39G A40U A41C G48A C95U C131G U148A
A39G A41C C43G G59C C69A G94U G100U
A39G A41U A49G C54A C87U C118U G143C A147C
A39G A49U C93U G128A C129U G141A G143C U144A
A39G A49U U53C U90G C103G
A39G A91C C105U G128C
A39G C43U C93G C103U
A39G C51G C96U A115C U134C
A39G C54U G83U G133A
A39G C87A A106C A137G G143U
A39G C87A G88U U101C A107G
A39G C108U U109G
A39G G48A G84C
A39G G50C C75G G124A
A39G U45A C76A G86C G94U
A39G U53A A66U A73G C87U C96U
A39G U53A C85A C125A C132G
A39G U55A A73C C87G A110U G136U
A39G U55A G67U G80C C85U C87A G126A U139G
A39G U55A G74C U82C G92A U102G C105G U151G
A39G U61A G70C C108U U146G U148C
A39G U61G G70C C79U G88C C108U U109G A115U A120G U146G
A39G U78A C95G U104G
A39G U78C G86C A107G C116A
A39G U82G A91C C118U U145C
A39G U82G A91G A107U G126C
A39U A40G U77C U82A A150C
A39U A41G C54A G80A G94C A98G U139G G152A
A39U A41U G80U C87A C99A A121G
A39U A47C C87A
A39U A52C C57G G70A C93U C99G A115G U134G
A39U A73U C76G G86A G140U
A39U A89G U127C U144A A150G
A39U A107G U144G
A39U C43G C54G U77G
A39U C57U G67C C108U
A39U C79U C87U C93A
A39U G46A G92U C93G G141C
A39U G46C A52G A89G C96U G152U
A39U G46U U90G G133U
A39U G48U C85U A150G
A39U G50A U53G C54G C93U A138U G152U
A39U G50C G71C C72U G83A
A39U G50C U56A G59C U61G A106U
A39U G58U G94A A97G G133A
A39U G59C G71C A91G A115U A120U G141A
A39U G68C C79G G86U C114U A147C
A39U G71C G88A C103G U135C A150C U151A
A39U G80C G94A C118U
A39U G88A G94C A150U
